Laboratory results published in the BET-seq Pho4 binding data (Le et al. 2018).
The other results are listed elsewhere or left out. The energies were worked out here from pooled read counts, against the library average; single values are noisy.

biological target: T1, Pho4 (S. cerevisiae) (UniProt P07270); assay: relative binding free energy (BET-seq); higher = weaker binding; conditions: reference: library average
T1 sequence: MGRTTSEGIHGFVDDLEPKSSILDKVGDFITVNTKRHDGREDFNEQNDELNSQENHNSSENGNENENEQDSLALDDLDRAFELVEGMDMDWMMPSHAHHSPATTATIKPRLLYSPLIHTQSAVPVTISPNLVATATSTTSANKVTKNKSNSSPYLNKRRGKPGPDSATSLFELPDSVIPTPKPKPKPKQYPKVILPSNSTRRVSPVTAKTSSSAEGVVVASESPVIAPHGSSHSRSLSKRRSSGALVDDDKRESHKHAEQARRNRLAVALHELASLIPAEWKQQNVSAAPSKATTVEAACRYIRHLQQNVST

Sequence | relative binding free energy
TGTAACACGTGGGACG | -0.15 kcal/mol
ATGGTCACGTGATTGA | 0.17 kcal/mol
GGGAGCACGTGGGGTG | -0.22 kcal/mol
TGAAGCACGTGCGGTT | -0.13 kcal/mol
GTGGTCACGTGATGGC | 0.35 kcal/mol
AGGGTCACGTGGCAAA | 0.07 kcal/mol
GGTGCCACGTGGTTAG | -0.12 kcal/mol
AGATTCACGTGTTTAT | 0.31 kcal/mol
TGCAGCACGTGTGTAG | 0.02 kcal/mol
GGCGTCACGTGCGCGG | -0.1 kcal/mol
GCATGCACGTGGTTGG | -0.02 kcal/mol
TGGTGCACGTGTTCCG | -0.01 kcal/mol
TAGGCCACGTGGGTCG | -0.29 kcal/mol
GTAAACACGTGTGGGC | 0.18 kcal/mol
GGATCCACGTGGGGGC | -0.09 kcal/mol
GGTTGCACGTGAGATT | 0.26 kcal/mol
ACGGTCACGTGGTTAG | 0.01 kcal/mol
AGGGTCACGTGTCAGC | 0.17 kcal/mol
GTTCTCACGTGTTGTT | 0.17 kcal/mol
GGGAGCACGTGTGGCG | -0.15 kcal/mol
GTATTCACGTGCTTGG | 0.21 kcal/mol
ATTGTCACGTGATAAT | 0.15 kcal/mol
ATGTGCACGTGGATGT | 0.02 kcal/mol
AGTGACACGTGCGTGA | -0.01 kcal/mol
TTGCACACGTGTGGGC | 0.12 kcal/mol
TGCAGCACGTGTGGAA | -0.05 kcal/mol

Sequence | relative binding free energy
TGGAGCACGTGGGATG | -0.19 kcal/mol
AGTGGCACGTGGTTTT | -0.07 kcal/mol
GCTCGCACGTGTTTGG | -0.1 kcal/mol
TTGACCACGTGGGTCG | -0.19 kcal/mol
GAGTGCACGTGAGTGG | 0.26 kcal/mol
GTGGGCACGTGACCGG | 0.03 kcal/mol
TTATACACGTGTGTCG | -0.04 kcal/mol
TCGTACACGTGCTATG | 0.11 kcal/mol
ATGAGCACGTGGCGGC | -0.16 kcal/mol
GGCCGCACGTGTGGGG | 0.02 kcal/mol
TGTGGCACGTGGCACG | -0.22 kcal/mol
TTTTTCACGTGTTTTA | 0.28 kcal/mol
GGATTCACGTGTTCAG | 0.32 kcal/mol
GAGTACACGTGCTGTT | 0.27 kcal/mol
TGGATCACGTGGTTGA | 0.08 kcal/mol
TTTTCCACGTGTCTGT | 0.13 kcal/mol
TATTTCACGTGCAGGC | 0.46 kcal/mol
TGGAGCACGTGGCGCG | -0.26 kcal/mol
GTTTGCACGTGCTGGG | 0.15 kcal/mol
GAGGGCACGTGCGGGC | -0.26 kcal/mol
AGATGCACGTGGTTTG | -0.08 kcal/mol
CTTAGCACGTGGGATT | -0.18 kcal/mol
TAACTCACGTGTTTGT | 0.18 kcal/mol
AAGGTCACGTGGGGCT | -0.1 kcal/mol
AATAGCACGTGTTATA | -0.07 kcal/mol
CTTGGCACGTGGTGGT | -0.13 kcal/mol

Sequence | relative binding free energy
ATGGTCACGTGAATCG | 0.39 kcal/mol
TGTGGCACGTGCGATG | -0.15 kcal/mol
ATTGGCACGTGTTCTA | -0.04 kcal/mol
TGCCTCACGTGGGGGT | 0.06 kcal/mol
GATCGCACGTGCGTGG | -0.08 kcal/mol
CTTGTCACGTGTTGTG | 0.05 kcal/mol
TGCTTCACGTGGCTGG | 0.28 kcal/mol
GGTAGCACGTGAGGTC | 0.2 kcal/mol
CGGTTCACGTGGTCTG | 0.19 kcal/mol
ATGGTCACGTGGGCGT | -0.13 kcal/mol
CTTGTCACGTGCTGGG | 0.06 kcal/mol
TTCGACACGTGAGTTA | 0.37 kcal/mol
ATTGGCACGTGAGCAG | 0.03 kcal/mol
GGGAGCACGTGAAGCG | 0.19 kcal/mol
ATTTTCACGTGGACAT | 0.21 kcal/mol
GTAGTCACGTGTCTGT | 0.01 kcal/mol
TGGGTCACGTGGGGGC | 0.06 kcal/mol
GTGGGCACGTGGCGAG | -0.13 kcal/mol
GTAAACACGTGCGGTT | -0.06 kcal/mol
TGTTCCACGTGCATGT | 0.01 kcal/mol
AGTAGCACGTGGTGTT | -0.18 kcal/mol
TTCGTCACGTGTGTAG | -0.02 kcal/mol
GGGTTCACGTGAGGCG | 0.42 kcal/mol
TTTGACACGTGCTTGA | -0.08 kcal/mol
GAGGACACGTGTAGGA | 0.07 kcal/mol
GTTGGCACGTGTGTAG | 0 kcal/mol

Sequence | relative binding free energy
GGTATCACGTGGGGCC | 0.14 kcal/mol
ATTGACACGTGTTGTC | -0.03 kcal/mol
AAAAGCACGTGATGTG | 0.08 kcal/mol
GGTTACACGTGACGCG | 0.33 kcal/mol
TGCTGCACGTGGGGTG | -0.21 kcal/mol
ATTTACACGTGTGACT | 0.27 kcal/mol
GTTAACACGTGTGTAA | 0.11 kcal/mol
TGGGTCACGTGGGTTG | -0.03 kcal/mol
TGGGACACGTGAACGG | 0.31 kcal/mol
TTTGACACGTGATATA | -0.06 kcal/mol
TCGAGCACGTGTGGGT | -0.13 kcal/mol
TGGGACACGTGTTTTG | 0.18 kcal/mol
GTGTTCACGTGGTGTT | 0.23 kcal/mol
GGGCGCACGTGGCGAG | -0.04 kcal/mol
GGGAGCACGTGATATA | 0.14 kcal/mol
TGCGCCACGTGTATGT | -0.02 kcal/mol
GTAGACACGTGGCAGG | 0 kcal/mol
TTGGGCACGTGTCATG | -0.07 kcal/mol
GTTATCACGTGGGTAG | 0.01 kcal/mol
AAATGCACGTGGGATT | -0.03 kcal/mol
GGTGTCACGTGGAAGG | 0.07 kcal/mol
TTGGACACGTGGTAAG | -0.09 kcal/mol
GTGTGCACGTGTGCTC | 0 kcal/mol
TTAGGCACGTGCGATT | -0.05 kcal/mol
CTGAGCACGTGTGTGG | -0.1 kcal/mol
TAGGTCACGTGAGAGG | 0.21 kcal/mol

Sequence | relative binding free energy
TGGGGCACGTGTGTTC | -0.05 kcal/mol
TAAGGCACGTGTTCTG | -0.1 kcal/mol
ATAAGCACGTGTGCGG | -0.17 kcal/mol
GGCATCACGTGTTGTT | 0.2 kcal/mol
ATGTGCACGTGCAGTG | 0.01 kcal/mol
GGGTGCACGTGCAGGC | 0.11 kcal/mol
AGGTTCACGTGCGGAA | 0.16 kcal/mol
TGTGTCACGTGGGTAT | -0.03 kcal/mol
ATTTGCACGTGTGACA | 0.09 kcal/mol
CGGGGCACGTGGAGAC | -0.02 kcal/mol
AGTGACACGTGTAGCA | 0.13 kcal/mol
GTTATCACGTGGTATA | 0.07 kcal/mol
GGAATCACGTGTGTTA | 0.21 kcal/mol
CGCGCCACGTGGAGGG | -0.13 kcal/mol
GGTAACACGTGTGGAA | 0.18 kcal/mol
CGCGGCACGTGGTCGG | -0.32 kcal/mol
GTCTTCACGTGTAGGG | 0.19 kcal/mol
TGCAACACGTGTTTTG | -0.01 kcal/mol
ATGGGCACGTGCGAAT | -0.15 kcal/mol
CGTGCCACGTGATTGT | -0.04 kcal/mol
GTAAGCACGTGGATGG | -0.14 kcal/mol
AGTTTCACGTGTTAGT | 0.36 kcal/mol
GTGATCACGTGAGAGG | 0.34 kcal/mol
GTTATCACGTGACGTG | 0.26 kcal/mol
TCGTGCACGTGGTAGA | -0.15 kcal/mol
GGTCGCACGTGTTTAA | 0.06 kcal/mol

Sequence | relative binding free energy
TCGTGCACGTGAATTT | 0.33 kcal/mol
TGCGTCACGTGTAAGT | 0.13 kcal/mol
AGGGACACGTGACAGG | 0.19 kcal/mol
GGAGTCACGTGGCTGT | 0.2 kcal/mol
TTTGACACGTGAAGTT | 0.26 kcal/mol
GGGTACACGTGGCTTA | 0.01 kcal/mol
TTGTTCACGTGAATAA | 0.39 kcal/mol
TATATCACGTGGCATG | 0.06 kcal/mol
GTGGCCACGTGTTAAG | 0 kcal/mol
TGTCTCACGTGAAATG | 0.42 kcal/mol
CGATACACGTGGATGG | 0.01 kcal/mol
CATTACACGTGGTTTG | 0.12 kcal/mol
GTATTCACGTGCAGAG | 0.33 kcal/mol
TGGTTCACGTGATGAC | 0.38 kcal/mol
TGTATCACGTGAGCGT | 0.24 kcal/mol
TATGGCACGTGAGATG | 0.06 kcal/mol
TGTGACACGTGTGTTG | -0.05 kcal/mol
TTTTGCACGTGAATCG | 0.06 kcal/mol
ATTGTCACGTGTAAGT | 0.26 kcal/mol
ATATTCACGTGTCTTG | 0.27 kcal/mol
TAGTTCACGTGGTTGT | 0.23 kcal/mol
ATTTCCACGTGTAAGT | 0.24 kcal/mol
ACTTGCACGTGGTTTA | -0.09 kcal/mol
GTGTACACGTGGCGGA | -0.03 kcal/mol
GGGGGCACGTGTTAAC | -0.03 kcal/mol
GCATGCACGTGGTGTA | -0.2 kcal/mol

Sequence | relative binding free energy
TCTGTCACGTGCTTTG | 0 kcal/mol
ATAATCACGTGTGGGG | 0.18 kcal/mol
CATTTCACGTGTTGGC | 0.41 kcal/mol
TATTACACGTGCTTTG | -0.01 kcal/mol
GTATGCACGTGTGCAT | -0.09 kcal/mol
TGTGGCACGTGTAGTC | 0.09 kcal/mol
AGGTACACGTGAGTTT | 0.4 kcal/mol
AGGGCCACGTGTAGGA | 0.01 kcal/mol
TCGTTCACGTGTTAAG | 0.33 kcal/mol
CGTAACACGTGTGGGC | 0.11 kcal/mol
TATTTCACGTGATGAA | 0.34 kcal/mol
TGCTTCACGTGCGTTG | 0.21 kcal/mol
GTGGTCACGTGGCGTC | 0.08 kcal/mol
TTTCTCACGTGTAATT | 0.4 kcal/mol
TTTACCACGTGTAGTG | 0.03 kcal/mol
TAATGCACGTGTCTTT | -0.02 kcal/mol
TGCTGCACGTGGGGAA | -0.25 kcal/mol
CTTTTCACGTGCGATG | 0.31 kcal/mol
ATCGCCACGTGGGGGT | -0.28 kcal/mol
GTGTGCACGTGCGATG | -0.06 kcal/mol
AAAGACACGTGTTTTT | 0.14 kcal/mol
GTAGACACGTGGTGCG | -0.05 kcal/mol
GTAGCCACGTGGTGGT | -0.09 kcal/mol
GATGCCACGTGTGGTT | 0.1 kcal/mol
ATTATCACGTGGGGGT | -0.02 kcal/mol
ATATTCACGTGCGGAG | 0.19 kcal/mol

Sequence | relative binding free energy
GTGGTCACGTGGGCGA | 0.02 kcal/mol
GCAATCACGTGGGTGT | 0.07 kcal/mol
AGGGCCACGTGATAGG | 0.15 kcal/mol
GTGGACACGTGGGTCG | -0.01 kcal/mol
TTGGTCACGTGAGACA | 0.29 kcal/mol
GTGGACACGTGGTTTC | 0.03 kcal/mol
GTGGTCACGTGTGTAA | 0.13 kcal/mol
GGGTTCACGTGAAGCG | 0.5 kcal/mol
TAACTCACGTGTATGT | 0.21 kcal/mol
GAGGGCACGTGAGCTG | 0.06 kcal/mol
TGGGCCACGTGGATGA | -0.02 kcal/mol
AATTGCACGTGTTGGA | -0.01 kcal/mol
GGTTTCACGTGCGTCT | 0.31 kcal/mol
AGTAGCACGTGGGGGT | -0.23 kcal/mol
TGGTGCACGTGGCGTC | -0.1 kcal/mol
TAAATCACGTGTAATG | 0.04 kcal/mol
ATTTTCACGTGTGCGG | 0.35 kcal/mol
CTTTGCACGTGGTAGG | -0.14 kcal/mol
GTGTGCACGTGTGCTA | -0.13 kcal/mol
AATTTCACGTGTAGAT | 0.49 kcal/mol
TTTAACACGTGGTTAC | 0.07 kcal/mol
CAAAACACGTGGGTGG | -0.11 kcal/mol
GGGGACACGTGTTGTG | 0.08 kcal/mol
TTTGTCACGTGTTGGT | 0.17 kcal/mol
TAGTTCACGTGTGGCA | 0.28 kcal/mol
AGGGACACGTGGCGCT | -0.09 kcal/mol

Sequence | relative binding free energy
TAGGGCACGTGTGGGG | -0.02 kcal/mol
GGTATCACGTGTCAGT | 0.21 kcal/mol
TGCCGCACGTGGGGTG | -0.33 kcal/mol
TTGTGCACGTGTAGCT | -0.08 kcal/mol
TAATTCACGTGTGATA | 0.3 kcal/mol
CTGTTCACGTGCTGGG | 0.17 kcal/mol
TTGGACACGTGCTTGT | -0.01 kcal/mol
ATTTGCACGTGTCGAA | 0.02 kcal/mol
GAGTACACGTGTTATG | 0.06 kcal/mol
ATTGGCACGTGGAGAG | -0.19 kcal/mol
CGTGGCACGTGGCAGT | -0.18 kcal/mol
ACGGACACGTGAGTTT | 0.31 kcal/mol
TCGTTCACGTGTCGTG | 0.22 kcal/mol
ATTTTCACGTGTGTGG | 0.3 kcal/mol
GTTGGCACGTGAAAAT | 0.16 kcal/mol
TTATACACGTGGCGTC | 0.09 kcal/mol
TTGCGCACGTGGCGTT | -0.32 kcal/mol
CAAGACACGTGGGGGA | -0.11 kcal/mol
TGACTCACGTGGTGTT | 0.14 kcal/mol
TTAAGCACGTGGATTG | -0.01 kcal/mol
ATACACACGTGGGTGT | -0.15 kcal/mol
AGGTGCACGTGCAAAT | 0.19 kcal/mol
